The list shows a part of the results. The energies were worked out here from pooled read counts, against the library average; single values are noisy.
Target: T1, Pho4 (S. cerevisiae) (UniProt P07270)
T1 sequence: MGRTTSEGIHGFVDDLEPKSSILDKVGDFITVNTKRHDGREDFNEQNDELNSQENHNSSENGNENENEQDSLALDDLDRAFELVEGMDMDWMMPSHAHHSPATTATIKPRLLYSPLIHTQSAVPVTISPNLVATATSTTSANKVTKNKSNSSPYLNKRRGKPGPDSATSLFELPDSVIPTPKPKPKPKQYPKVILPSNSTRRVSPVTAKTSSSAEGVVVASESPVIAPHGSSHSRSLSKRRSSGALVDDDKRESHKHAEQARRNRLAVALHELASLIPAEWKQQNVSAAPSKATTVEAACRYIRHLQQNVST
Assay: relative binding free energy (BET-seq); higher = weaker binding
Conditions: reference: library average

Sequence	relative binding free energy [kcal/mol]
GTTAACACGTGTCTGG	0.05
TGGGTCACGTGGTACT	0.03
AGGATCACGTGTGCGT	0.07
TGGCGCACGTGGTTGG	-0.18
ATGGTCACGTGGCGGC	0
CGGGGCACGTGAAGAA	0.25
ATGTTCACGTGGCCTG	0.22
TGCGTCACGTGCGGGG	-0.07
ATCGGCACGTGGGTGT	-0.18
AGTAGCACGTGGTAGA	-0.1
AGTAGCACGTGGTCGG	-0.14
AGGTACACGTGTAAGT	0.14
TGAGACACGTGGTTGA	-0.05
TCTGGCACGTGTCATG	-0.07
ATTGGCACGTGGTTTA	-0.08
GTACTCACGTGATTTT	0.26
TCGAGCACGTGCGGGT	0
TGGGGCACGTGTAAAA	0.03
TCCAACACGTGTGGTT	0.16
AAAAGCACGTGCGGGT	-0.18
TACGGCACGTGGCAGG	-0.07
TGTTACACGTGATGTG	0.18
AGTGACACGTGGTGAG	-0.04
GGGGGCACGTGGTATC	-0.09
TAGCGCACGTGTTGTT	-0.11

Sequence	relative binding free energy [kcal/mol]
GTTGTCACGTGCGGGA	0.22
ATTAGCACGTGGGTCT	-0.26
AGATTCACGTGTTCTT	0.12
TGAGGCACGTGGAGCT	-0.16
TAGGTCACGTGTGTGG	0.09
TGTTCCACGTGGTTTA	-0.05
GAATTCACGTGGTGAA	0.26
TTAATCACGTGCGTTA	-0.01
GCAGGCACGTGTCGGT	-0.05
ATGGACACGTGGTGCA	-0.14
AGTTTCACGTGGTCTT	0.19
GTTCTCACGTGCTTTT	0.34
GGACTCACGTGGGATG	0.08
AACGGCACGTGTGGGG	-0.12
GTAGTCACGTGAAGCG	0.29
GTGTACACGTGTACAG	0.12
TTGGGCACGTGTCCAG	-0.15
GGTTACACGTGTGATA	0.12
ATTTGCACGTGAAGTG	0.3
ATGTACACGTGATATT	0.06
GGAGTCACGTGGTTCA	0.1
TTCAGCACGTGCGAGT	-0.01
AGGTTCACGTGGGTAA	0.12
GTTATCACGTGCGTGG	0.08
ATGGGCACGTGAGTGA	-0.05

Sequence	relative binding free energy [kcal/mol]
TCGTACACGTGTGGGT	0.19
TGGGCCACGTGTGTAT	0.02
CCTGTCACGTGCGTGG	-0.01
GTATTCACGTGGCGTC	0.28
GAGGGCACGTGCCGGT	-0.06
CTTGCCACGTGTGGGG	-0.06
GTTTTCACGTGTATAT	0.24
TTCGGCACGTGTACTG	0
CAGGGCACGTGGCGTG	-0.07
GTGTGCACGTGTTGCC	0
TCTTTCACGTGCGTTA	0.18
TAGTCCACGTGTGTGT	0.01
GAAATCACGTGTTGAT	0.18
CTGGGCACGTGTGTGG	-0.08
GCAGGCACGTGTAAGG	0.01
CGGGTCACGTGTCATG	0.01
GGTGACACGTGGTCTT	-0.11
GTTAGCACGTGGGCGC	-0.22
TATTTCACGTGTGGGG	0.28
GTTTGCACGTGGCTGG	0.02
GTTGACACGTGGAATT	0.07
GGTGGCACGTGTCAGA	0.04
ACGAACACGTGGGGGG	-0.02
TAGTGCACGTGGAACT	0.07
CCTTGCACGTGGTTGG	-0.1

Sequence	relative binding free energy [kcal/mol]
TACGACACGTGTAGGG	-0.03
TCGGTCACGTGGGGCG	-0.07
CGTATCACGTGGTTTG	0.06
TCGGGCACGTGAAGGG	0.21
ATTGTCACGTGACGTT	0.18
AAAATCACGTGTGGTG	-0.02
TGGCTCACGTGAAGAT	0.41
CAGGTCACGTGTGGCG	0.05
TACTCCACGTGGGTGG	-0.14
GTAGCCACGTGGCGGT	-0.21
AGTTGCACGTGGGGGC	-0.11
AATTGCACGTGGGAGT	-0.04
TTGTACACGTGACATG	0.12
ATTTTCACGTGGTCTC	0.24
TGATGCACGTGGGAGG	-0.11
ATATTCACGTGAAATT	0.32
TTTTACACGTGATTAG	0.25
CGGGGCACGTGGTGCT	-0.39
TGTATCACGTGCAGAA	0.14
AAGTGCACGTGGAGGG	-0.03
ACGGGCACGTGTGCGT	-0.13
CTTAGCACGTGATTGG	0.03
ACAGTCACGTGGGCGT	-0.05
AGGGTCACGTGTCATT	0.09
TGAGTCACGTGAGGGT	0.34

Sequence	relative binding free energy [kcal/mol]
CGGAGCACGTGGTTTG	-0.12
AGTATCACGTGTTACG	0.18
AGGCGCACGTGGGAGT	-0.2
AGATACACGTGTATGG	0.12
TTGTGCACGTGTGCTG	0.06
TTTGTCACGTGGTTCT	0.23
TCAGTCACGTGGATGG	0.05
GTTCGCACGTGCTGGG	0.02
ATAATCACGTGAGTGG	0.13
TGAAACACGTGATAGG	0.11
TAGAGCACGTGTGCGT	-0.17
AGTAGCACGTGAGCTT	0.14
TCATGCACGTGGTGTC	-0.1
AGTCCCACGTGGGGGT	-0.27
TTGCGCACGTGTATTT	-0.1
AATGGCACGTGGTGCG	-0.23
TCTATCACGTGTTTAT	0.18
TAGTCCACGTGTGTCG	0.05
AGGTACACGTGAATTA	0.24
GTTTACACGTGGTACG	0.14
GGGGACACGTGCGGGG	-0.04
GTTTGCACGTGCTTTC	0.16
TGCGTCACGTGGCGGA	-0.01
TTGTGCACGTGGAGCA	-0.02
GGGTCCACGTGAGGTG	0.17

Sequence	relative binding free energy [kcal/mol]
ATGGGCACGTGCTGTA	-0.3
TTTGGCACGTGTTTCT	0.06
TAGCACACGTGGATGG	0.05
GGAGGCACGTGAGGCT	0.17
CGTAGCACGTGTGGTG	0.01
ACAGGCACGTGGTTGG	-0.22
CCTGGCACGTGTGGGA	-0.13
GTAGTCACGTGTTCGT	-0.01
TGATTCACGTGGGATG	0.17
GGATTCACGTGCGCGG	0.14
TAGTGCACGTGTATTC	0.06
GATGTCACGTGTGCAT	0.1
TACGGCACGTGGCTGG	-0.08
TGTGACACGTGTAAGA	0.22
TGGGCCACGTGTAGAG	0.11
ATTAGCACGTGTGCTT	-0.06
GGAGCCACGTGGGCGG	-0.27
CGGTTCACGTGGTAAA	0.25
TGAGGCACGTGTTGGC	-0.12
GTTGTCACGTGAGTCT	0.17
GTGGGCACGTGCTTGG	-0.01
